Source: PMC6919601, “Identification of Plasmodium dipeptidyl aminopeptidase allosteric inhibitors by high throughput screening” (PLoS ONE, 2019)
The whole screen tested about 110,000 compounds, of which about 230 (0.21%) showed an effect of 50% or more. The list shows a part of the results.
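Further: 30 min substrate incubation versus DMSO and 10 µM JCP410 controls.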

What follows are compounds tested against DPAP1 (Plasmodium falciparum, UniProt Q8IIJ9) (assay: primary screen, percent inhibition; read by cleavage of a fluorogenic dipeptide substrate; higher = more effect of the substance).
Chain of DPAP1 (Q8IIJ9 whole entry, looked up): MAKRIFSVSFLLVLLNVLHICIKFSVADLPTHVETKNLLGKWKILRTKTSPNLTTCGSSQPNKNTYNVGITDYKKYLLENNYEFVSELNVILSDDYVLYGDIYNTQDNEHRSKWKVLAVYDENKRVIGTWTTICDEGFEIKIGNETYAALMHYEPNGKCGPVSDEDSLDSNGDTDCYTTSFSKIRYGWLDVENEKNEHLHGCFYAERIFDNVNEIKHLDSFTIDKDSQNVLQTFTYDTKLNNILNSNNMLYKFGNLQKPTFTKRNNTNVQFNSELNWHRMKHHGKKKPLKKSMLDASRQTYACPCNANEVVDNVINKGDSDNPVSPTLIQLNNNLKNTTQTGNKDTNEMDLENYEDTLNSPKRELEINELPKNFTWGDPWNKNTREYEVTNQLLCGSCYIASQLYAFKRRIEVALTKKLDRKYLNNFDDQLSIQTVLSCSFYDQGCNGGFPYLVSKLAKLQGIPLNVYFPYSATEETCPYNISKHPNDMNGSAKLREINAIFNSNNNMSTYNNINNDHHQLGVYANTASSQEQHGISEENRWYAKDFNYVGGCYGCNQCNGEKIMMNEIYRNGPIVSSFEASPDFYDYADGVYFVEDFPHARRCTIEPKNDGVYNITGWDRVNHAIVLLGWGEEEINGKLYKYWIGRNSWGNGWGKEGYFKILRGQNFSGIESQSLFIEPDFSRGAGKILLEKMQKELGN
Design: species or system P. falciparum D10 trophozoite lysates; single well
With `CC1CC(C)CN(C(=O)c2ccc3c(Cl)c4c(nc3c2)CCC4)C1` (stereo not drawn) the “% Inhibition @ 10 uM” value was 1.15%. `NCCc1c(C(=O)O)[nH]c2ccc(S(N)(=O)=O)cc12` was tested, and the “% Inhibition @ 10 uM” value was 4.93%. For `CCCNS(=O)(=O)c1ccc2c(c1)nc1n2CCC1`, the “% Inhibition @ 10 uM” value was 15.3%. With `COc1cccc(/C(O)=C/c2nc3ncc(Br)cc3nc2O)c1` the “% Inhibition @ 10 uM” value was 0.166%. For `N#C/C(=C/c1cccc(F)c1)C(=O)NCCc1ccccc1`, the “% Inhibition @ 10 uM” value was -9.56%. In the case of `COc1cc(/C=C(\C#N)c2nc3ccccc3[nH]2)ccc1OCc1cc(=O)n2nc(C)sc2n1`, the “% Inhibition @ 10 uM” value is reported as -2.19%. `Cc1cc(Cl)ccc1OCC(=O)Nc1ccc(CN2CCOCC2)cc1` was tested, and the “% Inhibition @ 10 uM” value was -4.91%. With `Cc1nn(-c2ccccc2)c2c1C(c1c(C)[nH]c(C#N)c1C)C(C#N)=C(N)O2` (stereo not drawn) the “% Inhibition @ 10 uM” value was 0.503%. For `CSc1ccc(C2CC(=O)Nc3c2c(=O)n(C)c(=O)n3C)cc1` (stereo not drawn), the “% Inhibition @ 10 uM” value was -7.51%. In the case of `CCC(CC)C(=O)Nc1ccccc1C(=O)OC`, the “% Inhibition @ 10 uM” value is reported as -5.06%. `O=C(Nc1cccc(Cl)c1)c1ccccc1NC(=O)C1CCCCC1C(=O)O` (stereo not drawn) was tested, and the “% Inhibition @ 10 uM” value was -0.95%. With `COc1ccc(C2=NS(=O)(=O)N(C)C(C(=O)NCc3ccc(F)cc3)=C2)cc1OC` the “% Inhibition @ 10 uM” value was 5.48%. `Cc1ccc(C)c(S(=O)(=O)c2nnn3c2nc(NCC2CCCO2)c2sccc23)c1` (stereo not drawn) was tested, and the “% Inhibition @ 10 uM” value was -4.34%. `Cc1ccc(C(=O)Nc2ccccc2C(F)(F)F)cc1` was tested, and the “% Inhibition @ 10 uM” value was -9.9%. For `CC1C2CC(C(C3C(=O)C4CC3C(C)(C)C4C)C2=O)C1(C)C` (stereo not drawn), the “% Inhibition @ 10 uM” value was -4.26%. `COCCc1c(C)c(C#N)c2n(C)c3ccccc3n2c1=O` was tested, and the “% Inhibition @ 10 uM” value was -2.24%. `CC1CCN(c2nc3ccc(C(=O)NC4CCN(Cc5ccccc5)CC4)cc3s2)CC1` was tested, and the “% Inhibition @ 10 uM” value was 12.6%. For `Cc1cc(C(=O)NCCCN2CCc3ccccc3C2)n(-c2ccccc2)n1`, the “% Inhibition @ 10 uM” value was -7.53%. `Cc1ccc2nc(N(CCCN(C)C)C(=O)c3ccccc3)sc2c1` was tested, and the “% Inhibition @ 10 uM” value was -9%. For `COc1ccc(C2C3CCc4ccc(OC)cc4C3=NN2/C(C)=C/C(C)=O)cc1` (stereo not drawn), the “% Inhibition @ 10 uM” value was 22.9%. For `Cc1nn(Cc2ccccc2Cl)c(C)c1NC(=O)c1ccn(C)n1`, the “% Inhibition @ 10 uM” value was 2.65%. In the case of `CCc1nc2c(cnn2-c2ccc(Cl)cc2)c(=O)n1Cc1ccccc1`, the “% Inhibition @ 10 uM” value is reported as 1.9%. `COc1ccc(C(=O)Cc2cc3cccc(OC)c3oc2=O)cc1` was tested, and the “% Inhibition @ 10 uM” value was -1.06%. In the case of `CC(NC(=O)c1ccccc1NS(=O)(=O)c1ccc(Br)s1)c1ccccc1` (stereo not drawn), the “% Inhibition @ 10 uM” value is reported as -4.63%. In the case of `C=C(C)CNC(=S)Nc1sc2c(c1C(=O)OCC)CC(C)(C)OC2`, the “% Inhibition @ 10 uM” value is reported as 7.76%. For `Nc1n[nH]c(-c2ccco2)n1`, the “% Inhibition @ 10 uM” value was 0.675%. With `CCOC(=O)/C(C#N)=C/c1c(Oc2cc(C)cc(C)c2)nc2ccccn2c1=O` the “% Inhibition @ 10 uM” value was -1.43%.
